Test [1] concerns U937 human histiocytic leukemia cell line. Description: Inhibition of TSQ induced necroptosis, 384 well plate format (CellTitre-Glo). Conditions: Homo sapiens, U-937; U937 cells, TSQ cocktail (TNF, Smac mimetic, Q-VD-OPh), CelltiterGlo; read-out: Inhibition of TSQ-induced necroptosis (IC50 cell-based assay). The procedure, abridged:
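IC50 is the inflection point of 4-parameter logistic curves of percent viability, measured as ATP by CellTiter-Glo after 48 h at 37 °C. Cells were U937 at 20,000 per well, given TNF-Fc (100 ng/ml)/Smac mimetic (500 nM)/Q-VD-OPh (10 μM). Compound was tested at 36 μM down in ten 3-fold steps, 0.3% DMSO.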

The test system of another test is U937 cells. Description: Counter screen: cell viability without the TSQ cocktail (CelltiterGlo). More on the design: species or system human. The following applies: Homo sapiens, U-937, cell viability by CelltiterGlo, read-out: Off-target effect (IC50 cell-based assay). The procedure:
Counter screen: In parallel, all compounds were tested for their ability to affect cell viability. The same U937 cells were treated with compound in DMSO without the TSQ cocktail. This counter screen enabled evaluation of off-target effects. In this case, cell viability was measured by CelltiterGlo.
In general terms: The purpose of a counterscreen is to sort out artefacts and off-target activity.

The target of another test is T1, MLKL (full length) (Homo sapiens, UniProt Q8NB16).
T1 construct: purchased DiscoverX (KINOMEscan service); host or cells: E. coli BL21-derived (T7 phage) or HEK293
T1 sequence (Q8NB16 1-471): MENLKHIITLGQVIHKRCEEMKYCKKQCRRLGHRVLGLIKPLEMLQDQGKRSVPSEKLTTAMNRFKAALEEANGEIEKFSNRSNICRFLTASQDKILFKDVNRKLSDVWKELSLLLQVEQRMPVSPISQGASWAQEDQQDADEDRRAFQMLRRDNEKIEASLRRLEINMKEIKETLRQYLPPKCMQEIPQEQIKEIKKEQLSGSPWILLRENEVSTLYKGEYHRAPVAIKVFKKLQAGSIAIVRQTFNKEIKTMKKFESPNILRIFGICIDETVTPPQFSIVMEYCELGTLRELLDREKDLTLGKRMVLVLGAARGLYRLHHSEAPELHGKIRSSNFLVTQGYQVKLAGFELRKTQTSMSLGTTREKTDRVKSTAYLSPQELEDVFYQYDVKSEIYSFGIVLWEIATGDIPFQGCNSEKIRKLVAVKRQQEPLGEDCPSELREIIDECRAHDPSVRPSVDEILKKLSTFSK
Put plainly: KINOMEscan binding assay, MLKL. Conditions: equilibrium dissociation constant, class symbols. The source says: The Hill Slope was set to −1.

In a further test the target is T2, RIP1 (Homo sapiens, UniProt Q13546).
T2 construct: purchased DiscoverX (KINOMEscan service); host or cells: E. coli BL21-derived (T7 phage) or HEK293
T2 sequence (Q13546 1-671): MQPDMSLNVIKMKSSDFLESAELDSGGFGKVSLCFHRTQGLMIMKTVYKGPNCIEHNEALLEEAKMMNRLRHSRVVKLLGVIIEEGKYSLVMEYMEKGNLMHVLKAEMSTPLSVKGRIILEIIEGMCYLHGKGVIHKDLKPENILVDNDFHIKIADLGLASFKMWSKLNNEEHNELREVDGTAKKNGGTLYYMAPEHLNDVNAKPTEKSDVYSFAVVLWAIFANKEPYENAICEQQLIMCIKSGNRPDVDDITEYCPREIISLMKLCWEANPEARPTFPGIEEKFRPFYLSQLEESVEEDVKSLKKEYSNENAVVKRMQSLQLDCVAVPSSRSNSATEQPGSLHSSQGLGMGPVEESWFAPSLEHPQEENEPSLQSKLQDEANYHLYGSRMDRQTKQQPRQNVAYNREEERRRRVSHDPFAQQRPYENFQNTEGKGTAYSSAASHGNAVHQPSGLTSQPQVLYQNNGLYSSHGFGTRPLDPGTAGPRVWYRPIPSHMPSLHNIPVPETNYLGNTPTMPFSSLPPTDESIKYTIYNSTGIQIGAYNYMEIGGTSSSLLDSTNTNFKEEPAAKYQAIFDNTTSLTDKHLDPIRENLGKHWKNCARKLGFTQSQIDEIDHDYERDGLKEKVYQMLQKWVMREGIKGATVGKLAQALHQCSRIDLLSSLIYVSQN
Put plainly: KINOMEscan binding assay, RIP1. Conditions: equilibrium dissociation constant, class symbols.

As to `CC[C@@H](Oc1cc(-c2n[nH]c(Nc3cnccn3)c2C(N)=O)ccc1NS(=O)(=O)CC(F)(F)F)c1ccc(F)cc1` (single isomer, unassigned) [Compound 251], the IC50 was 1 to 30 µM in test [1] and over 30 µM with U937 cells. The compound also displayed a Kd on MLKL (full length) of under 0.01 µM.
Regarding `CCS(=O)(=O)Nc1ccc(-c2n[nH]c(Nc3cnccn3)c2C(N)=O)cc1Oc1ccc(Cl)cc1` [Compound 185, 3-(3-(4-chlorophenoxy)-4-(ethylsulfonamido)phenyl)-5-(pyrazin-2-ylamino)-1H-pyrazole-4-carboxamide], the Kd was over 30 µM on RIP1 and under 0.01 µM at MLKL (full length).
Taken in the same sequence, the figures for `CCS(=O)(=O)Nc1ccc(-c2n[nH]c(Nc3cnccn3)c2C(N)=O)cc1OCC1CCCN(C)C1` (stereo not shown) [Compound 187, 3-(4-(ethylsulfonamido)-3-((1-methylpiperidin-3-yl)methoxy)phenyl)-5-(pyrazin-2-ylamino)-1H-pyrazole-4-carboxamide] were over 30 µM and 0.01 to 1 µM.
With `CCS(=O)(=O)Nc1ccc(-c2n[nH]c(Nc3cccnc3C(F)(F)F)c2C(N)=O)cc1OCc1ccc(F)cc1` [Compound 192, 3-(4-(ethylsulfonamido)-3-((4-fluorobenzyl)oxy)phenyl)-5-((2-(trifluoromethyl)pyridine-3-yl)amino)-1H-pyrazole-4-carboxamide], the Kd is over 30 µM on RIP1 and 0.01 to 1 µM at MLKL (full length).
The corresponding values for `CCS(=O)(=O)Nc1ccc(-c2n[nH]c(Nc3ccnc(C(F)(F)F)n3)c2C(N)=O)cc1OCc1ccc(F)cc1` [Compound 195, 3-(4-(ethylsulfonamido)-3-((4-fluorobenzyl)oxy)phenyl)-5-((2-(trifluoromethyl)pyrimidin-4-yl)amino)-1H-pyrazole-4-carboxamide] are over 30 µM and under 0.01 µM.
Taken in the same sequence, the figures for `CCS(=O)(=O)Nc1ccc(-c2n[nH]c(Nc3cccc(C(F)(F)F)n3)c2C(N)=O)cc1OCC1CCCCC1` [Compound 200] were over 30 µM and 0.01 to 1 µM.
The corresponding values for `CCS(=O)(=O)Nc1ccc(-c2n[nH]c(Nc3cnccn3)c2C(N)=O)cc1Oc1cccc(F)c1` [Compound 204, 3-(4-(ethylsulfonamido)-3-(3-fluorophenoxy)phenyl)-5-(pyrazin-2-ylamino)-1H-pyrazole-4-carboxamide] are over 30 µM and under 0.01 µM.
As for `CCS(=O)(=O)Nc1ccc(-c2n[nH]c(Nc3cnccn3)c2C(N)=O)cc1OCCc1ccccc1` [Compound 210, 3-(4-(ethylsulfonamido)-3-phenethoxyphenyl)-5-(pyrazin-2-ylamino)-1H-pyrazole-4-carboxamide], the Kd at RIP1 was over 30 µM; on MLKL (full length), under 0.01 µM.
The corresponding values for `NC(=O)c1c(-c2ccc(NS(=O)(=O)C(F)F)c(OCc3ccc(F)cc3)c2)n[nH]c1Nc1cccc(C(F)(F)F)n1` [Compound 217] are over 30 µM and under 0.01 µM.
As for `CCS(=O)(=O)Nc1ccc(-c2n[nH]c(Nc3cnccn3)c2C(N)=O)cc1OCCc1cccc(F)c1` [Compound 219, 3-(4-(ethylsulfonamido)-3-(3-fluorophenethoxy)phenyl)-5-(pyrazin-2-ylamino)-1H-pyrazole-4-carboxamide], the Kd on RIP1 was over 30 µM; at MLKL (full length), under 0.01 µM.
On to `COCCOc1cc(Nc2[nH]nc(-c3ccc(NS(=O)(=O)N(C)C)cc3)c2C(N)=O)ccn1` [Compound 221, 3-(4-((N,N-dimethylsulfamoyl)amino)phenyl)-5-((2-(2-methoxyethoxy)pyridin-4-yl)amino)-1H-pyrazole-4-carboxamide], for which the Kd on RIP1 was over 30 µM; on MLKL (full length) it was under 0.01 µM.
With `NC(=O)c1c(-c2ccc(NS(=O)(=O)CC(F)(F)F)c(OCc3ccccn3)c2)n[nH]c1Nc1cnccn1` [Compound 227, 5-[(pyrazin-2-yl)amino]-3-{3-[(pyridin-2-yl)methoxy]-4-(2,2,2-trifluoroethanesulfonamido)phenyl}-1H-pyrazole-4-carboxamide], the Kd on RIP1 is over 30 µM; on MLKL (full length) it was under 0.01 µM.
Turning to `CCS(=O)(=O)Nc1ccc(-c2n[nH]c(Nc3cnccn3)c2C(N)=O)cc1O[C@@H](C)c1ccccn1` [Compound 230, 3-{4-ethanesulfonamido-3-[(1S)-1-(pyridin-2-yl)ethoxy]phenyl}-5-[(pyrazin-2-yl)amino]-1H-pyrazole-4-carboxamide], the Kd on RIP1 is over 30 µM; at MLKL (full length), under 0.01 µM.
Taken in the same sequence, the figures for `NC(=O)c1c(-c2ccc(NS(=O)(=O)C(F)F)c(OC(c3ccc(F)cc3)C3CCC3)c2)n[nH]c1Nc1cnccn1` (stereo not shown) [Compound 236, 3-{3-[cyclobutyl(4-fluorophenyl)methoxy]-4-(difluoromethanesulfonamido)phenyl}-5-[(pyrazin-2-yl)amino]-1H-pyrazole-4-carboxamide] were over 30 µM and under 0.01 µM.
Taken in the same sequence, the figures for `NC(=O)c1c(-c2ccc(NS(=O)(=O)CC(F)(F)F)c(OCc3ccc(F)cc3)c2)n[nH]c1Nc1ccccn1` [Compound 239] were over 30 µM and under 0.01 µM.
The corresponding values for `C[C@H](Oc1cc(NS(=O)(=O)C(F)F)ccc1-c1n[nH]c(Nc2cnccn2)c1C(N)=O)c1ccc(F)cc1` [Compound 243, 3-[4-(difluoromethanesulfonamido)-2-[(1S)-1-(4-fluorophenyl)ethoxy]phenyl]-5-[(pyrazin-2-yl)amino]-1H-pyrazole-4-carboxamide] are over 30 µM and 0.01 to 1 µM.
On to `C[C@@H](Oc1cc(NS(=O)(=O)C(F)F)ccc1-c1n[nH]c(Nc2cnccn2)c1C(N)=O)c1ccc(F)cc1` [Compound 255, 3-[4-(difluoromethanesulfonamido)-2-[(1R)-1-(4-fluorophenyl)ethoxy]phenyl]-5-[(pyrazin-2-yl)amino]-1H-pyrazole-4-carboxamide], for which the Kd at RIP1 is over 30 µM; at MLKL (full length), 0.01 to 1 µM.
Taken in the same sequence, the figures for `NC(=O)c1c(-c2ccc(NS(=O)(=O)CC(F)(F)F)c(OCc3ccc(Cl)cc3)c2)n[nH]c1Nc1ccccn1` [Compound 269, 3-{3-[(4-chlorophenyl)methoxy]-4-(2,2,2-trifluoroethanesulfonamido)phenyl}-5-[(pyridin-2-yl)amino]-1H-pyrazole-4-carboxamide] were over 30 µM and under 0.01 µM.
As for `C[C@H](Oc1cc(-c2n[nH]c(Nc3cc(C4(C)CCOCC4)on3)c2C(N)=O)ccc1NS(=O)(=O)C(F)F)c1ccc(F)cc1` [Compound 301, (S)-3-(4-((difluoromethyl)sulfonamido)-3-(1-(4-fluorophenyl)ethoxy)phenyl)-5-((5-(4-methyltetrahydro-2H-pyran-4-yl)isoxazol-3-yl)amino)-1H-pyrazole-4-carboxamide], the IC50 was 0.01 to 1 µM in test [1] and over 30 µM with U937 cells. On MLKL (full length), this compound registered a Kd of under 0.01 µM.
Taken in the same sequence, the figures for `C[C@H](Oc1cc(-c2n[nH]c(Nc3cc(C4CC4)on3)c2C(N)=O)ccc1NS(=O)(=O)C(F)F)c1ccc(F)cc1` [Compound 310, (S)-5-((5-cyclopropylisoxazol-3-yl)amino)-3-(4-((difluoromethyl)sulfonamido)-3-(1-(4-fluorophenyl)ethoxy)phenyl)-1H-pyrazole-4-carboxamide] were 0.01 to 1 µM, over 30 µM and under 0.01 µM.

The IC50 is the concentration that inhibits the measured activity by half. What is called Kd is the free concentration of one partner at which half of the binding sites on the other are occupied at equilibrium, for simple one-to-one binding.
